± gives the standard deviation of the averaged measurements. The list shows a part of the results.

This assay has as its system PfAP2-LT AP2 domain (GST-tagged). Nature of the assay: gcPBM binding intensity (ln(normalized median fluorescence intensity)); higher = stronger DNA binding. Summed up: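 In this array assay, P. falciparum DNA-binding domains with a GST tag, expressed in E. coli, were applied for 1 h to primer-extended double-stranded 36-bp intergenic genomic probes and negative controls on an Agilent 4 × 180k array. Bound protein was visualised with Alexa488 anti-GST antibody at 488 nm. Binding intensity is the highest Masliner-normalised natural-log median intensity across replicate spots of either probe orientation.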
Turning to “ATATGATTATTATTATATAAATTATAAAGTCTAATA [GTGCAC_negctrl_site586]”, the “gcPBM binding intensity (ln)” value turned out to be 8.28 ± 0.31.
The figure for “TTTTCATTCAATTATATTTATATATATATATATATA [GTGCAC_negctrl_site538]” is 8.86 ± 0.23; for “TACATGTATAAATAAGCACACATGTGGATATGTACA [CACACA_site93]” it is 9.36 ± 0.35; for “CAAAATATTTTTATAACACACATATATATAATGTGC [CACACA_site4767]” it is 8.82 ± 0.39.
“ACTTATATATTATGTTGTCCGTCCATTCTCTTTATC [XGTACX_site3769]”: the “gcPBM binding intensity (ln)” value turned out to be 9.22 ± 0.5.
In the case of “AAAATTTAAAGCATGACACACAATTATATTATGTGC [CACACA_site3435]”, the “gcPBM binding intensity (ln)” value came out at 9.4 ± 0.15.
“TTGTGAAATAAAATTTGTACACACATATATATATAT [XGTACX_site1078]”: the “gcPBM binding intensity (ln)” value was 9.45 ± 0.12.
As for “TTCTTTTCTTTAGTAGAATGTAAAAAATATAATCTT [XGTACX_negctrl_site290]”, the “gcPBM binding intensity (ln)” value was found to be 8.26 ± 0.43.
For “TTTTTTTTGGAATTCACACAAATATAACATGGGTAT [CACACA_site5185]”, the “gcPBM binding intensity (ln)” value was 8.7 ± 0.38.
Consider “TACACAAGGGGAAAAATATATATATATATATATATA [TGCATGCA_negctrl_site217]”, for which the “gcPBM binding intensity (ln)” value amounted to 9.88 ± 0.028.
With “TAAAAGTATATATATACACACATAAATATATATGTA [CACACA_site663]”, the “gcPBM binding intensity (ln)” value is 9.04 ± 0.4.
For “TAAAAAATTTTATATTCACACACATATATATATATA [CACACA_site8109]” the value was 9.31 ± 0.16; for “TTTTATAAGGTGAAAAGTACATATAACTTATTTTAC [XGTACX_site5572]”, 8.46 ± 0.45.
For the sequence “ATCTTTCCTATTTGTAGTACAAAAAAAAAAAAAAAA [XGTACX_site5485]”, the “gcPBM binding intensity (ln)” value came to 8.18 ± 0.49.
For the sequence “TATTGTCTATAATAAACACACAATATTAAAAATATA [CACACA_site6624]”, the “gcPBM binding intensity (ln)” value was 8.62 ± 0.47.
For “TTAAATGATGTAAACACACACATATACATTATTATA [CACACA_site3162]” the value was 9.19 ± 0.35.
For “AAAAAAAAAAAAAAAACACACATACATACATACATA [CACACA_site6125]”, the “gcPBM binding intensity (ln)” value is 9.26 ± 0.41.
Take “AGAAAAGTGATATATACACACTTATATTTATTTATA [CACACA_site7350]”: the “gcPBM binding intensity (ln)” value turned out to be 8.8 ± 0.47.
As to “TTTTTTTTTTTTTTTGCACACACCATATTTATAGAA [CACACA_site3310]”, the “gcPBM binding intensity (ln)” value stood at 9.22 ± 0.45.
Consider “TTATTTTATTTTTTTGTGCACATATATATTTATAAA [GTGCAC_site9615]”, for which the “gcPBM binding intensity (ln)” value is 8.81 ± 0.43.
With “ACGTGTGATTATAATTGTACTTTAATGTAAGAATGA [XGTACX_site1109]”, the “gcPBM binding intensity (ln)” value was 9.12 ± 0.4.
As to “ATATATATATATATATGTACTTATAATAATATTCAA [XGTACX_site2593]”, the “gcPBM binding intensity (ln)” value turned out to be 9.29 ± 0.12.
For “CAAAAGAAGGTAAACACACACACACGCATACAAAAA [CACACA_site7724]” the value was 9.94 ± 0.43.
As to “ATAGAATAAAACTATACACACCTATATTTAAACATA [CACACA_site5106]”, the “gcPBM binding intensity (ln)” value amounted to 8.94 ± 0.47.
Consider “CAAAACCTTATATGTACACACATATACATCACCCTT [CACACA_site3170]”, for which the “gcPBM binding intensity (ln)” value is 9.36 ± 0.47.
The figure for “ATTTCTCTATCGTAATGTACATAAAAAATGAAAAAA [XGTACX_site1201]” is 8.51 ± 0.51; for “TTTTCTAAATAAATAGTGCATTTATTATATATACAT [GTGCAC_site9766]” it is 8.71 ± 0.42.
For the sequence “TGTTTATTTTTAAAAAGTACATATTTAAAAAACTTC [XGTACX_site271]”, the “gcPBM binding intensity (ln)” value came out at 8.17 ± 0.42.
In the case of “TTGTATTATATTGTATTATGTTTAAATGAAAAAAAA [CACACA_negctrl_site662]”, the “gcPBM binding intensity (ln)” value was determined as 8.19 ± 0.4.
For “TATTGTTACTTTATATGTACTAATTAAACATATACA [XGTACX_site6363]” the value was 8.72 ± 0.46; for “AAATATTAGTAACACAGACACACAAAAAAAAAAAAA [CACACA_site2175]”, 8.95 ± 0.58.
In the case of “AAAAAAAAAAAAAAAAGTACACAAATTTTAAAAATT [XGTACX_site3006]”, the “gcPBM binding intensity (ln)” value is 8.48 ± 0.59.
“ATAAAATATAAAAATTGTACGATAATAATAGTAGGA [XGTACX_site8951]”: the “gcPBM binding intensity (ln)” value was determined as 8.74 ± 0.42.
Turning to “AACACTTCTTATTTATGTACTTAATTCCCAACGGAA [XGTACX_site4818]”, the “gcPBM binding intensity (ln)” value turned out to be 8.64 ± 0.5.
As to “AATTACTACATAAATACATGCATAATTATATATATA [TGCATGCA_site783]”, the “gcPBM binding intensity (ln)” value turned out to be 8.73 ± 0.36.
With “TATCTCTTCATATTGTGTACATATTTTTATTTATTG [XGTACX_site4038]”, the “gcPBM binding intensity (ln)” value was 9.12 ± 0.54.
In the case of “AAATGAATAAATAAGACACACACGAAAATAAGTAAA [CACACA_site71]”, the “gcPBM binding intensity (ln)” value was determined as 9.44 ± 0.41.
For TTATAAAATTACTTGGTGCATTAGAATATTTCAATA the value was 8.3 ± 0.41; for “TGATCAGATAGACACACACACAAAAAAAAAAAAAAA [CACACA_site7805]”, 9.43 ± 0.59; for “AAATATATATATATATATATATATATATATATATAT [CACACA_negctrl_site677]”, 9.52 ± 0.54.
As for “TTGCATTTTCTAGTAACACACAATTAGCGTTGCTGT [CACACA_site3594]”, the “gcPBM binding intensity (ln)” value was 9.15 ± 0.51.
With “TAACAAAAAGGGAACACATGCGCTCTTTATTTATTT [TGCATGCA_site620]”, the “gcPBM binding intensity (ln)” value was 9.03 ± 0.4.
With “TATAGAAGCATTCACACACACACATACATACACATA [CACACA_site1466]”, the “gcPBM binding intensity (ln)” value was 10 ± 0.3.
Consider “ATAATATTAATATGTACACACCTTAATCCTTAAAAG [CACACA_site7640]”, for which the “gcPBM binding intensity (ln)” value was 8.78 ± 0.37.
Regarding “GTATTTATATGATTAACACACATATGGGTATTAATA [CACACA_site4853]”, the “gcPBM binding intensity (ln)” value came to 8.89 ± 0.26.
The figure for “TATACCTGAATTAAAAGTACATGTATATATTTTCCC [XGTACX_site3594]” is 8.73 ± 0.38.
Turning to “ATAATTTTTTAAGTGTGTACTAAAATGTGTATTTTA [XGTACX_site6227]”, the “gcPBM binding intensity (ln)” value was determined as 8.8 ± 0.48.
Take “ATAAATGACAAATTAACACACATATATTATAGATAT [CACACA_site7770]”: the “gcPBM binding intensity (ln)” value was 9.07 ± 0.42.
“AAAATGTGATATGTAAATATATATGTATGTATATAT [CACACA_negctrl_site1748]”: the “gcPBM binding intensity (ln)” value worked out at 8.92 ± 0.38.
For “ATCTATATTTAATTTACACACAAAAAAAATTGTTGG [CACACA_site6582]” the value was 8.96 ± 0.38; for “TAATGCATTTTCGCATGTACATATTTCTCTTTATAT [XGTACX_site8915]”, 8.79 ± 0.49; for “TCTTAATATCGTTTCTCACACATATACAAACATAAA [CACACA_site5700]”, 8.54 ± 0.4.
Turning to “TATTATAGAAATTTAATGTTGGACAAAAAAATGAAA [CACACA_negctrl_site1351]”, the “gcPBM binding intensity (ln)” value is 8.44 ± 0.47.
With “AATATATGAATTATATGTACATATAGATAAGTCACA [XGTACX_site7637]”, the “gcPBM binding intensity (ln)” value turned out to be 8.93 ± 0.42.
The figure for “AGAGAGAAAGCTATAACATGCAACAATTTTTAGAAC [TGCATGCA_site596]” is 8.9 ± 0.54; for “AAATTATTTATTTTATGTACATATTATTAAAGTTAA [XGTACX_site552]” it is 8.58 ± 0.42.

Values taken from the supplement of paper PMC11417369.
